In PubChem BioAssay AID1508642 (National Center for Advancing Translational Sciences (NCATS), 2021):
Out of some 43,000 compounds screened, about 200 (0.47%) were called active. Inconclusive results (about 12%) are left out. The call rests on the fitted dose curve; in most records, active means well fitted cell-killing curve with a large enough effect; inconclusive means small, poorly fitted or top-dose-only effect, or effect the other way; inactive means flat fitted curve, though single readings scatter. The list shows a part of the results.

Assay: Cell viability qHTS assay in S16 Pmp22-F2sN cells; further: nearly all actives have a fitted effect of over 65% in size
Settings: S16 Pmp22-F2sN Schwann cells viability, CellTiter-Glo, 24 h; series mostly up to 57.5 µM; activity change, negative = cytotoxicity: at the top concentration
How it was run: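 S16 Pmp22-F2sN Schwann cells (500-1,000/well) in phenol-red-free DMEM with 10% FBS received 23 nL compound by pin tool for 24 h at 37 °C. Viability was then read as CellTiter-Glo luminescence after 15 min at room temperature.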
On the % scale 0 is the no-effect control and ±100 the full control effect.

Row | SMILES | activity change, negative = cytotoxicity
1 | CC(=O)N1CCc2c(sc3c2c(=O)n(Cc2ccccc2)c(=O)n3Cc2ccc(Cl)cc2)C1 | inactive: 9.49%
2 | Cc1cc(C)c(Cn2c(=O)n(CCC(=O)NCCc3ccccc3)c(=O)c3ccccc32)c(C)c1 | inactive: 0.182%
3 | COc1ccc(OC)c(CCNC(=O)c2c(C)oc3ncn(CC(C)C)c(=O)c23)c1 | inactive: 13.2%
4 | CN1CCN(C(CNC(=O)c2ccc(F)cc2)c2ccc3c(c2)OCO3)CC1 (configuration not stated) | inactive: -0.217%
5 | COC(=O)c1sccc1S(=O)(=O)N(CC(=O)Nc1cc(C)ccc1C)c1ccc(C)c(C)c1 | inactive: -24.8%
6 | Cc1ccc(N2CC(NC(=O)c3ccc(S(=O)(=O)N(C)C)cc3)CC2=O)cc1C (configuration not stated) | inactive: -0.0716%
7 | CCC(C)NC(=O)c1ccc2c(c1)sc1nc(-c3ccc(OC)cc3)cn12 (configuration not stated) | inactive: 16.9%
8 | COc1ccccc1CNC(=O)CSc1nc(-c2ccc(OC)c(OC)c2)cc(C(F)(F)F)n1 | inactive: -17%
9 | CCOc1ccc(CCNC(=O)c2ccc3c(c2)N(Cc2ccc(F)cc2)CCS3)cc1 | inactive: -1.07%
10 | O=C(NCC(c1cccs1)S(=O)(=O)c1cccs1)c1ccc(F)c(F)c1 (configuration not stated) | inactive: 0.304%
11 | O=C(CSc1nc2c([nH]c3ccccc32)c(=O)n1-c1cccc(Cl)c1)N1CCCC1 | inactive: 6.24%
12 | Cc1c(C)n(Cc2ccccc2)c2ccc(C(=O)NCC(C)c3ccccc3)cc12 (configuration not stated) | inactive: -16.8%
13 | Cc1ccc(N2CCN(S(=O)(=O)c3nnc(NC(=O)c4ccccc4)s3)CC2)cc1 | inactive: -9.87%
14 | COc1ccc(N2CCN(C(=O)c3cc4c(=O)oc5ccc(C)cc5c4s3)CC2)cc1 | inactive: -2.42%
15 | CCOc1ccc(N2CC(NC(=O)c3ccc4c(c3)OCO4)CC2=O)cc1 (configuration not stated) | inactive: 2.48%
16 | CCCCNc1nc2c(S(=O)(=O)c3ccc(C)cc3)nnn2c2ccsc12 | inactive: 7.78%
17 | CCOCCc1nnc(NC(=O)C(=O)c2cc(C)n(-c3ccc(C)c(C)c3)c2C)s1 | inactive: -0.448%
18 | O=C(Cn1cnc2nc3c(cc2c1=O)CCCC3)Nc1ccc(F)cc1Cl | inactive: -0.46%
19 | O=C(Nc1ccccc1C(=O)OCc1cc(=O)n2nc(C3CC3)sc2n1)c1ccc(Cl)cc1 | inactive: -1.42%
20 | Cc1ccc(C)c(N2CCN(c3nc4ccc(C)cc4nc3-n3nc(C)cc3C)CC2)c1 | inactive: 4.43%
21 | Cc1cc(C)n(CCC(=O)Nc2ccc(Cl)cc2)n1 | inactive: 4.04%
22 | CCOc1ccc(CCNC(=O)c2ccc(-n3c(C)cc4c3CCCC4)cc2)cc1OCC | inactive: 2.25%
23 | CCOC(=O)CNC(=O)c1cc2c(=O)oc3ccccc3c2s1 | inactive: 0.779%
24 | Cc1cccc(Cn2cc(S(=O)(=O)c3ccccc3)c(=O)c3cc(F)c(N4CCOCC4)cc32)c1 | inactive: -24%
25 | Cc1cccc(C)c1NC(=O)C1CCCN1S(=O)(=O)c1ccccc1 (configuration not stated) | inactive: 1.62%

Row | SMILES | activity change, negative = cytotoxicity
26 | CN(C)c1ccc(CNC(=O)Cc2ccc(NC(=O)N3CCCCc4ccccc43)cc2)cc1 | inactive: 15.9%
27 | COc1ccc(N2CCN(CCCNC(=O)c3nnc(Cc4ccc(F)cc4)o3)CC2)cc1 | inactive: -16.5%
28 | Cc1ccccc1OC(=O)c1nc(SCc2ccccc2F)ncc1Cl | inactive: -13.5%
29 | Cc1ccc2c(CC(=O)Nc3ccc(S(=O)(=O)N4CCCCC4C)cc3)coc2c1C (configuration not stated) | inactive: -16.3%
30 | CCc1ccc2ncc3c(-c4ccc(F)cc4)nn(CC(=O)NC4CCCCC4)c3c2c1 | inactive: 1.2%
31 | CCOC(=O)Cn1c(=O)n(-c2cccc(Cl)c2)c2nc(-c3ccccc3Cl)nc(C(N)=O)c21 | inactive: 18%
32 | CCOc1ccc(S(=O)(=O)N(CC(=O)Nc2ccc(OC)cc2OC)c2ccccc2)cc1 | inactive: -0.97%
33 | Cc1nn(CCCC(=O)NCc2ccccc2Br)c(=O)c2c1sc1ccccc12 | inactive: 5.74%
34 | O=C(NCc1ccccc1F)C1CCCN(C(=O)N2CCOc3ccccc32)C1 (configuration not stated) | inactive: -2.28%
35 | O=C(CN1C=NS(=O)(=O)c2ccccc21)Nc1ccccc1F | inactive: 1.68%
36 | CCCNC(=O)C1CCC(Cn2c(=O)c3sccc3n(CC(=O)NCc3ccccc3)c2=O)CC1 (configuration not stated) | inactive: 5.9%
37 | COc1ccc(N2C(=O)CS(=O)(=O)C23C(=O)N(Cc2ccccc2F)c2ccccc23)cc1Cl (configuration not stated) | inactive: 2.29%
38 | Cc1nn(C(C)C(=O)N2CCN(c3ccc(F)cc3)CC2)c(=O)c2c1sc1ccccc12 (configuration not stated) | inactive: 1.75%
39 | COc1ccc(Br)cc1CNC(=O)c1cc(=O)[nH]c2ccc(S(=O)(=O)N3CCCCC3C)cc12 (configuration not stated) | inactive: -11.9%
40 | COc1ccc(OC)c(CNS(=O)(=O)c2ccc3c(c2)oc(=O)n3C)c1 | inactive: -4.57%
41 | COc1ccc(-c2nc3ccccc3o2)cc1NC(=O)COc1ccc(C)c(C)c1 | inactive: 24.9%
42 | Cc1cccc2nc(Cn3c(=O)n(-c4ccc(Cl)cc4)c(=O)c4c5c(sc43)CCC5)cc(=O)n12 | inactive: 4.12%
43 | CCOc1ccc(C(=O)Nc2cccc(C(=O)OCc3cc(=O)n4cc(C)sc4n3)c2)cc1 | inactive: -0.618%
44 | O=C(NCC(c1cccnc1)N1CCN(c2ccccc2F)CC1)c1ccc(F)cc1 (configuration not stated) | inactive: -0.795%
45 | CSCCC(NS(=O)(=O)c1ccc2c(c1)oc(=O)n2C)C(=O)Nc1ccc(F)c(Cl)c1 (configuration not stated) | inactive: -4.87%
46 | Cc1cccc(NC(=O)c2cnc3sc(N4CCCC4)nn3c2=O)c1C | inactive: -5.39%
47 | COc1ccc(NC(=O)c2c(NCc3cccc(F)c3)sc3c2CCC3)c(OC)c1 | inactive: -24.1%
48 | CCCCOc1ccc(C2=NC(c3cccs3)=Nc3ccc(OC)cc3N2)cc1 | inactive: 0.0525%
49 | COc1cccc2sc(N(Cc3cccnc3)C(=O)c3ccco3)nc12 | inactive: -28.1%
50 | Cc1nn(C)c(C)c1S(=O)(=O)N(CC(=O)NCCc1ccc(Cl)cc1)c1ccc(C(C)C)cc1 | inactive: 1.72%

Row | SMILES | activity change, negative = cytotoxicity
51 | Cc1ccccc1C(=O)Nc1ccc(S(=O)(=O)N2CCC(c3nc4ccccc4s3)CC2)cc1 | inactive: 1.3%
52 | COc1ccc(C)cc1NC(=O)C(=O)NCCc1sc(-c2cccc(C)c2)nc1C | inactive: 15.9%
53 | Cc1cc(C)cc(NC(=O)Cc2csc(COc3cccc(C)c3)n2)c1 | inactive: -5.02%
54 | CC(=O)c1ccc(NC(=O)Cn2c(=O)cc(C)c3c(C)nn(-c4cccc(F)c4)c32)cc1 | inactive: 6.67%
55 | Cc1c(C)c2c(cc(C)c3c(-c4ccc(Br)cc4)coc32)oc1=O | inactive: 4.84%
56 | CCOC(=O)c1cccc(NC(=O)CCn2c(=O)oc3ccccc32)c1 | inactive: 22.1%
57 | CCC(Oc1ccccc1)C(=O)Nc1cccc(OCc2cc(=O)n3cccc(C)c3n2)c1 (configuration not stated) | inactive: -17.4%
58 | Cc1ccc(CSc2nnc([C@@H](N)C(C)C)o2)cc1 | inactive: -6.53%
59 | Cc1ccc(C2N=C(N)Nc3nc4ccccc4n32)cc1 (configuration not stated) | inactive: -0.779%
60 | CCN(CC)c1ccc(C(=O)NCc2nc3cccnc3n2Cc2ccc(C)cc2)cc1 | inactive: -13.6%
61 | Cc1cccc(-c2nc3c4c(-c5ccccc5)c(-c5ccccc5)oc4ncn3n2)c1 | inactive: 2.99%
62 | Cc1cccc(NC(=O)Cn2cc(S(=O)(=O)N3CCCC3)c(S(=O)(=O)N3CCCC3)c2)c1C | inactive: 0.557%
63 | CCOC(=O)c1c(C)[nH]c(C)c1S(=O)(=O)NCC(=O)Nc1cccc(SC)c1 | inactive: -10.6%
64 | CCC1CCc2nc3sc(C(=O)Nc4cccc(F)c4)c(N)c3cc2C1 (configuration not stated) | inactive: -5.22%
65 | COc1cccc(NC(=O)CSc2nc(C)c(Cc3ccccc3)c(=O)[nH]2)c1 | inactive: 1.4%
66 | Cc1cccn2c(=O)cc(CSc3nnc(NC(=O)C(C)C)s3)nc12 | inactive: 1.24%
67 | CN(C)CCNC(=O)c1ccc2nc(Cc3ccccc3)oc2c1 | inactive: -4.15%
68 | Cc1ccc(Cl)cc1N1CCN(C(=O)c2sc3nc4n(c(=O)c3c2C)CCC4)CC1 | inactive: -3.45%
69 | CCN(CC)C(=O)Cn1cc(SCC(=O)Nc2cc(OC)ccc2OC)c2ccccc21 | inactive: -7.48%
70 | COc1ccc(Cl)cc1NC(=O)CSc1cc(C)[nH]c(=O)n1 | inactive: -19.9%
71 | O=C(NCc1ccc(Cl)cc1)C1CCN(S(=O)(=O)c2ccc(F)cc2)CC1 | inactive: 9.72%
72 | CSc1ccc(CCNC(=O)c2c(C)nn(-c3ccc(F)cc3)c2-n2cccc2)cc1 | inactive: -13.5%
73 | CCC(C)n1c(SCc2ccc(F)cc2Cl)nc2ccsc2c1=O (configuration not stated) | inactive: 2.93%
74 | Cc1ccc(CSc2nc3ccc(NC(=O)CC(C)C)cc3s2)cc1 | inactive: -0.702%
75 | CCOC(=O)c1noc2ncn(Cc3ccc([N+](=O)[O-])cc3)c(=O)c12 | inactive: -13.7%

Row | SMILES | activity change, negative = cytotoxicity
76 | COc1ccc(C(=O)NCC(c2ccc(N(C)C)cc2)N2CCOCC2)cc1 (configuration not stated) | inactive: -0.705%
77 | CCC(CC)C(=O)Nc1ccc2nc(SCC(=O)N3CCOCC3)sc2c1 | inactive: 16.7%
78 | Cc1ccccc1C(=O)Nc1sc2c(c1C(=O)N1CCCCC1)CCC(C(C)(C)C)C2 (configuration not stated) | inactive: -0.989%
79 | COc1ccccc1N1CCN(c2ncc3c(n2)CCN(Cc2ccc(C)s2)C3)CC1 | inactive: -4.37%
80 | O=c1oc2ccccc2cc1-c1nc(-c2cccc(Cl)c2)cs1 | inactive: 8.4%
81 | COc1ccc(Cl)cc1NC(=O)CSc1nc(-c2cccs2)cc(C(F)(F)F)n1 | inactive: 7.37%
82 | Cc1ccccc1CNC(=O)CN1CCSc2ccccc21 | inactive: 11.6%
83 | Nc1nc2nc(-c3ccccc3)cc(=O)n2[nH]1 | inactive: 12.1%
84 | CCc1ccccc1-n1c(SCC(=O)Nc2ccc(C)cc2)nc2n[nH]c(C)c2c1=N | inactive: -6.95%
85 | O=C(c1ccc2c(c1)N(Cc1ccccc1Cl)C(=O)c1ccccc1S2)N1CCCC1 | inactive: -1.1%
86 | CCCCOC(=O)c1ccc(NC(=O)c2ccc3c(c2)CCCN3S(C)(=O)=O)cc1 | inactive: -18.9%
87 | COc1ccc(NC(=O)CN2CCCN(Cc3ccccc3)S2(=O)=O)cc1 | inactive: 1.77%
88 | Cc1ccc(NC(=O)C2CCN(S(=O)(=O)c3ccc4c(c3)CCCC(=O)N4)CC2)c(Br)c1 | inactive: 2.91%
89 | Fc1ccc(CNc2nc(-c3ccc(Cl)cc3)cc(C(F)(F)F)n2)cc1 | inactive: 22.6%
90 | Cc1cccc(NS(=O)(=O)c2ccc3c(c2)n(C)c(=O)n3C)c1C | inactive: 0.286%
91 | O=C(CSc1nnc(CNC(=O)c2ccccc2)n1-c1ccc(F)cc1)Nc1ccccc1F | inactive: 10.4%
92 | O=C(CC1NCCNC1=O)Nc1ccc(F)c(Cl)c1 (configuration not stated) | inactive: 13.8%
93 | Cc1nn(-c2ccc(F)cc2)c(-n2cccc2)c1C(=O)N1CCCCC1C (configuration not stated) | inactive: 17.5%
94 | Cc1cc(NC(=O)c2oc3c(c2C)-c2[nH]ncc2CC3)ccc1Br | inactive: -20.8%
95 | Cc1cc(=O)n2nc(N3CCC(C(=O)NCCCOC(C)C)CC3)sc2n1 | inactive: 27.7%
96 | CCC(C(=O)Nc1cc(-c2cn3cccnc3n2)ccc1C)c1ccccc1 (configuration not stated) | inactive: 2.97%
97 | COc1ccccc1N1CCN(S(=O)(=O)c2ccc3c(c2)CCCN3C(C)=O)CC1 | inactive: -26.8%
